According to the supplement of paper PMC4166925:
± gives the standard deviation of the averaged measurements. Whole data set: some 33,000 sequences, median “E-score (dimensionless, -0.5 to 0.5)” near -0.049, cut for the highest 2% near 0.37. This is one part of the list.

test system: T1, PmTbr T-box DNA-binding domain (GST fusion); assay: PBM E-score of 8-mer (E-score (dimensionless, -0.5 to 0.5)); Tbr is Tbrain of the sea star Patiria miniata (Pm) or the sea urchin Strongylocentrotus purpuratus (Sp); higher = stronger binding preference; most listed sequences are background and not binding sites; conditions: the construct has about 5 more residues each side
T1 sequence: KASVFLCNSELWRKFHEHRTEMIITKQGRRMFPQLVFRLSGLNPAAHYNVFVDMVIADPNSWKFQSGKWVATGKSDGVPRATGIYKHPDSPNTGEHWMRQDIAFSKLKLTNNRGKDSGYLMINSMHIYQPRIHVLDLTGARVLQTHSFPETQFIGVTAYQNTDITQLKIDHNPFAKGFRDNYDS
Method in brief: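 Each ungapped 8-mer received an enrichment E-score from the Universal PBM Analysis Suite, averaged over duplicate arrays. The proteins were Tbr T-box DNA-binding domains, covering the whole T-box plus about five flanking residues, fused to GST and expressed in BL21 E. coli at 20 °C before glutathione affinity purification. Universal Agilent oligonucleotide arrays were made double-stranded by primer extension and incubated with 200 nM protein in PBS (pH 7.5). The arrays were then scanned and quantified, and every 8-mer was scored from probe intensities.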

Sequence	PBM E-score of 8-mer
ACGACACC	0.421 ± 0.018
CAGCTGCG	0.179 ± 0.036
AACCACCG	-0.163 ± 0.057
ACGCGGAA	-0.0594 ± 0.086
CTATCGAA	-0.118 ± 0.088
GTACTTCA	-0.0867 ± 0.048
ACCGTAGA	-0.195 ± 0.048
AAGGGCGG	-0.216 ± 0.011
CGTACACG	-0.0017 ± 0.053
AGCACTCA	0.0494 ± 0.0015
GACATTTA	-0.146 ± 0.089
CATCATCA	0.0903 ± 0.061
CGTTGGAC	-0.0164 ± 0.026
AAAGAAGA	-0.151 ± 0.054
ACGGTGGC	0.0669 ± 0.032
AACGCAGG	-0.144 ± 0.0058
CCGGTATC	-0.105 ± 0.053
ACCCGGTG	0.175 ± 0.093
CAAATGGC	-0.124 ± 0.039
ACGATGAA	-0.106 ± 0.043
CGGTCTGC	-0.0507 ± 0.024
AATTCCAT	-0.0087 ± 0.00049
CGACGAAA	0.217 ± 0.023
GATAACCC	0.0272 ± 0.031
ATTGTCCC	-0.139 ± 0.025

Sequence	PBM E-score of 8-mer
GACTTGGA	-0.167 ± 0.064
AGGGTTAA	-0.0933 ± 0.0027
CTGAGGAA	-0.0661 ± 0.04
CTGCTATC	-0.00783 ± 0.059
GGTCTTGA	-0.102 ± 0.071
AATTCGGG	-0.0985 ± 0.03
AAAGCCAG	-0.229 ± 0.088
AAAACGCA	-0.0394 ± 0.059
ACATTTGC	0.112 ± 0.057
ACAGAATG	-0.0678 ± 0.015
GGCCGCTA	0.0915 ± 0.073
ACAACCCG	0.146 ± 0.069
AATGGACC	-0.264 ± 0.02
ATAGTATC	-0.163 ± 0.1
AGCAAGTA	0.114 ± 0.04
ACCTGATG	0.0342 ± 0.045
GAGAATAC	-0.0102 ± 0.065
CATGACAA	0.204 ± 0.047
CAGCCAGG	-0.0679 ± 0.026
ACGCCATA	-0.0707 ± 0.035
CCTCTAGC	0.133 ± 0.0077
CCGCATGA	-0.193 ± 0.018
CCCCGTCC	-0.279 ± 0.047
AAGCCGCG	0.0627 ± 0.058
AACACGTG	0.38 ± 0.016

Sequence	PBM E-score of 8-mer
ACTGCCAG	-0.133 ± 0.038
GGTCTTAA	-0.0609 ± 0.12
ATACCCAT	-0.162 ± 0.043
CTTTGTAC	-0.116 ± 0.076
TCTTGAAA	-0.0736 ± 0.019
CTAGGCCA	-0.046 ± 0.0095
ACACAAGC	0.0445 ± 0.012
TGACTTAA	-0.12 ± 0.035
AAATTCAA	-0.0843 ± 0.17
ACACTACT	0.15 ± 0.013
CGAATCCC	-0.0282 ± 0.063
CATCCTAA	-0.167 ± 0.006
AATTTGGG	-0.163 ± 0.0085
AGTGCCTA	-0.0341 ± 0.021
ACTGCGAG	0.179 ± 0.04
AGAGCGCA	-0.0204 ± 0.075
AACTCGAC	0.149 ± 0.017
ATCCCAAT	-0.136 ± 0.031
AAGAGGGT	-0.06 ± 0.0015
AGTCAATC	-0.182 ± 0.073
CTAGCATC	0.0514 ± 0.036
ACAACTGT	0.222 ± 0.018
CGGGACGC	-0.0718 ± 0.16
AAGAGCTC	-0.232 ± 0.038
ACCCGATC	0.00349 ± 0.03

Sequence	PBM E-score of 8-mer
AAGTGCAG	0.111 ± 0.019
CACCTAGG	0.436 ± 0.01
ATCTCCTA	-0.279 ± 0.035
CTGAGCCC	-0.197 ± 0.048
CTCTCTAA	-0.0792 ± 0.076
ACTACACC	0.224 ± 0.059
AGGTCTCC	-0.227 ± 0.008
CAATAGAA	-0.0235 ± 0.022
ACTACGGG	-0.297 ± 0.033
ACGTGCAC	-0.0259 ± 0.088
GCCTGAGC	-0.0832 ± 0.032
ATGGGGGG	-0.0992 ± 0.034
GTGGCAAA	0.333 ± 0.05
GAGCATTA	-0.0505 ± 0.052
AGGAACGC	-0.0922 ± 0.022
CTTTCGGA	-0.0447 ± 0.021
AACTTTAG	-0.175 ± 0.026
AGGCGGAC	-0.152 ± 0.043
CGACATGC	0.0443 ± 0.046
AGTTACGA	-0.0212 ± 0.0068
AATACACG	0.0556 ± 0.074
CGAGGCGA	0.26 ± 0.041
AGCCCTCC	-0.16 ± 0.029
GCTGAAGC	-0.0971 ± 0.0085
AAGCTCAA	-0.193 ± 0.041

Sequence	PBM E-score of 8-mer
CTCTCTTC	-0.155 ± 0.018
GATCTTAC	-0.2 ± 0.051
GATATTAA	-0.0978 ± 0.15
AGCGAGCG	0.114 ± 0.0037
GACACGTC	0.373 ± 0.021
CTTCAAGA	-0.315 ± 0.061
AGGCTTCG	-0.07 ± 0.03
GATCTTAA	-0.0592 ± 0.0038
ACGCTCCG	-0.0864 ± 0.038
ACGAGATC	0.0209 ± 0.041
GCACGCGC	0.168 ± 0.023
AGTAATTG	-0.113 ± 0.088
GTTAAGGA	-0.113 ± 0.048
ACTGGGCT	-0.324 ± 0.035
CTTGCCTA	-0.00632 ± 0.15
AGACTGAC	-0.135 ± 0.032
ATGTATAG	-0.0531 ± 0.039
ATTGCCTA	-0.134 ± 0.077
CGCGTCCC	0.0728 ± 0.075
CACCGGCA	0.132 ± 0.001
CTGCGTCA	0.0224 ± 0.033
AGTTCGTC	-0.0275 ± 0.018
ACCGTGGC	-0.118 ± 0.095
ATGATGAC	0.0122 ± 0.024
AATCAAAG	-0.202 ± 0.029

Sequence	PBM E-score of 8-mer
CAGGGCTA	-0.0195 ± 0.019
CTCAGCAA	0.00353 ± 0.011
AACACATG	0.317 ± 0.013
AATTAAAG	-0.254 ± 0.078
AGTCTATA	-0.239 ± 0.057
GACGGCGA	0.0367 ± 0.081
ACATTCCG	0.0669 ± 0.011
AACGAAGT	-0.0242 ± 0.039
AAGCGAAA	-0.083 ± 0.07
AGAACGCG	0.0461 ± 0.013
CCAGGAAA	-0.000415 ± 0.025
CGCGCGAA	0.3963 ± 0.00041
ACCATCTG	0.166 ± 0.007
CCTTCCTA	-0.2081 ± 0.00062
CCACTGTC	0.0702 ± 0.13
AGTTAAAG	-0.219 ± 0.12
TGCTAGCA	0.279 ± 0.025
GCACACTA	0.102 ± 0.027
CGCTTCTA	-0.094 ± 0.061
GCGTTTAA	-0.0514 ± 0.0086
CCGCCTTC	0.1559 ± 0.00055
AAGTGCGA	0.4835 ± 0.00061
CCCGAAGG	-0.156 ± 0.021
AACTGGAA	-0.3616 ± 0.002
CGCCTTCA	0.232 ± 0.047

Sequence	PBM E-score of 8-mer
CCGCTTGC	0.0475 ± 0.013
CATCAATC	-0.188 ± 0.014
AGTGTGTG	0.338 ± 0.021
GAGGAACC	-0.233 ± 0.12
ACGCACCT	0.364 ± 0.0093
AATATGGA	-0.238 ± 0.025
ATACAGCC	-0.344 ± 0.015
CACCCCGC	0.315 ± 0.013
CATGGTTC	-0.00724 ± 0.04
ATTGAGGC	-0.0962 ± 0.037
CTTGTGAC	0.291 ± 0.038
ATGGACCG	-0.166 ± 0.069
CCATACCA	-0.0888 ± 0.031
CAGGTTCC	-0.0715 ± 0.045
AGCTCAGA	-0.0299 ± 0.012
ACTTGGCC	-0.000655 ± 0.0025
GGTCTTAC	-0.337 ± 0.034
GCGGTGTA	-0.136 ± 0.021
AGATACCT	-0.178 ± 0.033
CTAGAAAG	0.0291 ± 0.051
CGACTTTA	-0.0278 ± 0.13
TGAATGAA	-0.333 ± 0.066
